# In paper PMC12040169 (PLOS Biology, 2025):
# The list shows a part of the results.
# System: T1, C. trachomatis L2/434/Bu expressing GFP (CTL2-GFP)
# T1 construct: L2/434/Bu GFP intracellular growth in HeLa cells
# Design: species or system HeLa; C. trachomatis total inclusion area by high-content imaging, normalised to DMSO
# Conditions: total inclusion area; 28.5 h, 10 µM; inhibitor
# Summary of the method: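 Host cell viability was gauged from Hoechst-stained nuclei counts, while chlamydial growth was taken from total inclusion area and inclusion number per well. Cells were fixed and imaged by high-content microscopy once bulk GFP and resorufin fluorescence had been measured.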
row,Structure (SMILES),% of control remaining
1,COc1ccccc1N1CCN(CCCCNS(=O)(=O)c2ccc(Cl)c(Cl)c2)CC1 [CBK074837],78.183
2,CCN(CC)CCN1C(=O)CCC2(c3ccccc3)CCC(=O)C=C12 (stereo not drawn) [CBK023010C],87.3121
3,O=C(Cc1ccsc1)Nc1snnc1-c1ccc(Cl)cc1 [CBK153243],97.9808
4,C#CCNC(=O)CC[C@H]1CNC(=O)[C@@H]2[C@@H](CCN2Cc2cccs2)N1C [CBK289033],115.211
5,CN1CCC(N2CCN(C(=O)NCCN3CCOCC3)CC2)CC1 [CBK155891],98.2665
6,CC(C)(C)c1ccc(C(=O)N2CC(C(=O)O)C2)cc1 [CBK008670],41.5689
7,COc1ccc2sc(Nc3ccc(F)cc3)nc2c1 [CBK287641],103.167
8,CCc1oc2ccc(Cl)cc2c1C(=O)CCN1CCCCC1 [CBK009675C],100.55
9,CC(C)CC(=O)N1CCCC(n2c(=O)oc3ccc(Cl)cc32)C1 (stereo not drawn) [CBK282891],82.594
10,CNc1nc(N)nc(OCC(F)(F)F)n1 [CBK028082],57.7188
11,O=C(CSc1nnc(-c2ccco2)o1)c1ccc2c(c1)OCCO2 [CBK266387],65.3767
12,CN1CCN(CC(=O)Nc2sc3c(c2C(=O)Nc2ccccc2)CCCC3)CC1 [CBK268431],92.034
13,Cn1ccnc1C1(O)CC2CCC(C1)N2C(=O)c1cccs1 (stereo not drawn) [CBK284088],105.754
14,CCc1nnc(NS(=O)(=O)c2ccc(Nc3ccc([N+](=O)[O-])c4nonc34)cc2)s1 [CBK261442],86.5948
15,Cc1c(Cc2ccccc2)c(N2CCN(Cc3ccccc3)CC2)n2c(nc3ccccc32)c1C#N [CBK263150],107.579
16,COC(C(=O)N(C)C)C(OC)C(=O)N(C)C (stereo not drawn) [CBK005447],79.4843
17,O=C(c1nccs1)C1CCN(C(=O)Cc2ccc(F)cc2)CC1 [CBK284199],97.2824
18,Cc1nn(C(C)C)c(C)c1CN(CCO)Cc1cccs1 [CBK283016],113.096
19,COc1ccc(C)cc1S(=O)(=O)n1ccc2c(CNC3CCN(C(C)C)CC3)cccc21 [CBK113310T],34.5383
20,N#Cc1ccc(S(=O)(=O)NC2CCCCNC2=O)cc1 (stereo not drawn) [CBK009293],71.8944
21,O=C(CSc1ccc(Cl)cc1)OCC(=O)c1ccccc1 [CBK264306],97.729

row,Structure (SMILES),% of control remaining
1,Cc1ccc2[nH]c(SC(C)C(=O)N3CCOCC3)nc2c1 (stereo not drawn) [CBK306187],59.2269
2,Cc1cnn(CCC(=O)NC(Cc2ccsc2)c2nccs2)c1 (stereo not drawn) [CBK284664],129.454
3,COCCCN(Cc1ccccn1)Cc1ccc(F)cc1F [CBK282974],106.686
4,CC1(C)Cc2nc3[nH]nc(N)c3cc2CO1 [CBK261476],92.5887
5,Fc1ccc(CCN2CCCCC2c2cc3ccccc3[nH]2)cc1 (stereo not drawn) [CBK107227T],38.6838
6,COc1ncc(-c2cncc(NCc3cccc(Cl)c3)n2)c(OC)n1 [CBK065211],152.911
7,CCN(CC)S(=O)(=O)c1ccc2c(c1)CCCN2C(=O)c1ccc(C#N)cc1 [CBK295161],107.802
8,O=C(NCC1CCCO1)C1(Cc2ccc(-c3ccc(F)c(F)c3)cc2)CCOCC1 (stereo not drawn) [CBK285534],107.475
9,O=c1ccnc(SCc2cccc(Cl)c2)[nH]1 [CBK288123],0.06112
10,COc1ccc(CCC(=O)N2CCCCC2c2ncc(-c3cccc(F)c3)[nH]2)cc1OC (stereo not drawn) [CBK291148],101.614
11,Cc1ccc(-c2cn(S(=O)(=O)c3cccc4nsnc34)nc2N)cc1 [CBK268871],85.542
12,Cn1cc(-c2nc(C(=O)N3CCN(c4ncccn4)CC3)cs2)cn1 [CBK305626],59.545
13,CCOC(=O)C(C)n1nc(C)n2c(cc3sc(C)cc32)c1=O (stereo not drawn) [CBK284066],92.9552
14,O=C(NCc1cccs1)N1CCCN(Cc2ccc(F)cc2)CC1 [CBK306294],59.6128
15,CN(C)S(=O)(=O)N(CC(=O)N1CCN(Cc2ccccc2)CC1)c1ccccc1 [CBK268423],92.1853
16,COCCn1cc(C(=O)N2CCOC3CCCC32)c2ccccc21 (stereo not drawn) [CBK305156],49.6795
17,Cc1ccc(Cn2cnc3c(nnn3-c3ccc(C)cc3)c2=O)cc1 [CBK287502],104.96
18,O=C(O)c1ccc(S(=O)(=O)Nc2ccc(OC3CCCC3)cc2)cc1 [CBK296658],85.2596
19,CN(C)S(=O)(=O)Nc1ccc(Cc2ccncc2)cc1 [CBK265011],115.817
20,Cn1c(=O)n(C)c2cc(NC(=O)CSc3nc(Nc4ccccc4)nc(N4CCOCC4)n3)ccc21 [CBK269041],69.5362
21,COc1cc(NC(=O)N(C)C2CCN(C)C2)cc(OC)c1OC (stereo not drawn) [CBK156022],107.149

row,Structure (SMILES),% of control remaining
1,O=C1NC/C=C/CC2(CCN(c3ncccn3)CC2)C(=O)NCCOc2ccccc21 [CBK292081],90.6267
2,O=C1c2ccccc2C(Nc2cccnc2)N1c1ccccn1 (stereo not drawn) [CBK113239],85.8867
3,Cc1nc2c(c(=O)[nH]1)CCN(CCC(C)c1ccccc1)C2 (stereo not drawn) [CBK282387],119.396
4,O=C(COc1ccc(S(=O)(=O)N2CCCCC2)cc1)N1CCC(Cc2ccccc2)CC1 [CBK268547],115.46
5,Cc1cc2c(cc1Cl)C(=O)CC1(CCN(C(=O)C3CC(=O)OC3(C)C)CC1)O2 (stereo not drawn) [CBK156514],76.0351
6,FC(F)(F)c1nc2ccccc2nc1OCCc1c[nH]c2ccccc12 [CBK115843],70.0826
7,COCCN1CCn2c(nc3cc(NC(=O)C4CCCCC4)ccc32)C1 [CBK307411],66.5093
8,CN(C)Cc1cc(CN(C)C)c(O)c(CCc2ccccc2)n1 [CBK278316C],96.7927
9,COCCNC(=O)c1c(NC(=O)c2ccccc2C)sc2c1CCCC2 [CBK091645],75.114
10,CN(C)CCn1c(=O)[nH]c2ncc(-c3ccoc3)nc21 [CBK064294],109.624
11,C=CCNC(=O)c1cnc(-c2ccc(Cl)cc2)c(-c2ccco2)c1 [CBK036738],115.931
12,Cc1ccccc1-c1cnc(NS(C)(=O)=O)c(C(=O)N(C)C)c1 [CBK106430],95.3848
13,CC1=NN(c2ccccc2)C(=O)/C1=C\c1ccc(Cl)cc1 [CBK067772],88.4306
14,COc1cc(C2C3=C(CC(C)(C)CC3=O)Nc3ncnn32)ccc1OCC(=O)N1CCOCC1 (stereo not drawn) [CBK268551],97.9519
15,O=C(O)c1c[nH]nc1-c1cccc(Br)c1 [CBK286963],128.014
16,c1ccc(N2CCN(c3cccc(-c4cc5ccccc5o4)n3)CC2)nc1 [CBK036875],126.69
17,COc1ccc(-c2nnc(SC(C)C(=O)Nc3cc(C)no3)n2CC2CCCO2)cc1 (stereo not drawn) [CBK297879],61.3559
18,O=C(O)CSc1nnc(-c2sc3ccccc3c2Cl)n1-c1ccccc1 [CBK263830],101.485
19,O=C(O)c1ccc(NC(CC(=O)c2ccccc2)c2ccc(Br)cc2)cc1 (stereo not drawn) [CBK266195C],91.1889
20,CCNC(Cc1ccc2ccccc2c1)C(=O)OC (stereo not drawn) [CBK071702],97.7962
21,Cc1cc(C)n(CC(=O)N2CCCC(c3cc4cccnc4[nH]3)C2)n1 (stereo not drawn) [CBK284928],97.6956

row,Structure (SMILES),% of control remaining
1,Nc1nc(NCCc2ccccc2)nc(-c2cc(Cl)ccc2O)n1 [CBK074551],96.3384
2,COc1ccc([C@@]23CC[C@@H](NC(=O)N(C)c4ccc(C)cc4)C[C@@H]2N(C)CC3)cc1OC [CBK045681T],32.7842
3,C/C(=N\Nc1cc(-c2ccccc2)nc(C)n1)c1ccc(O)cc1 [CBK261710],109.654
4,O=C(O)/C=C\C(=O)N(C1CCCCC1)C1CCCCC1 [CBK286562],62.4855
5,N#Cc1ccc2nc([C@H]3CCN(C(=O)C4CCCCC4)C3)[nH]c2c1 [CBK289380],106.286
6,CN1CCC(N2CCC[C@H]2c2nc(-c3ccnc(N4CCOCC4)c3)no2)CC1 [CBK288880],114.149
7,COCC1CN(S(=O)(=O)c2cnc3ccsc3c2)C1 [CBK304768],80.029
8,CNC(=O)c1ccc(-c2ccco2)nc1N1CCOCC1 [CBK106212],54.9045
9,Cc1ccc(S(=O)(=O)N2C[C@H](O)C[C@H]2C(=O)O)cc1 [CBK289276],109.745
10,N#CCCCN1CCC(Oc2nccnc2OCc2c(F)cccc2Cl)CC1 [CBK153630],100.571
11,Cn1cc(CC(=O)NCc2ccc(OC3CCNCC3)cc2)c2ccccc21 [CBK028430T],96.7938
12,Cc1ccc(OCc2ccc(Cl)nc2)c(Br)c1 [CBK002842],69.7179
13,Cc1cc2c(cc3c(=O)n(CC(=O)N4CCC(C)CC4)nc(C)n32)o1 [CBK283590],102.621
14,Cc1cc(=O)oc2cc(Sc3ccc([N+](=O)[O-])cc3)ccc12 [CBK002954],86.4132
15,CC(C)C(NS(=O)(=O)c1ccc([N+](=O)[O-])cc1)C(C)C [CBK267656],95.3087
16,Cc1nc(C)c(C(=O)c2coc3ccc(O)cc23)o1 [CBK027631],47.6327
17,O=C(CCn1cnc2cc(-c3noc(-c4cnccn4)n3)ccc21)N1CCCC1 [CBK288595],112.897
18,O=C(CCC1CCCC1)N1CCC(O)(c2cccnc2)CC1 [CBK283603],95.0223
